Assay results taken from the RNAGym collection of RNA variant scans (doi:10.7554/elife.90254).
The source gives no read counts; variants with many changes may rest on few reads.

B1: OR4K15 (parent)
chain: GUUAACGGUCAUAGGCCAUGGAAACUAGGAGCACCAUUUCGCUGCCAGUGAAGAAAUGAACAAAGAAAAUCUGGGCCAGGCAGGCAUCAAAAGAAAUAGUCUUGCGCUCAACCAGAAAGUCUGUAAUCAUUUUAAGGGUA

Variants of: B1
Test: self-cleavage, relative activity (ratio to wild type); higher = more cleavage; in vitro, sequencing; the parent is a self-cleaving ribozyme

Variant | self-cleavage
A11G A22G U97C A117G | 0.35
U12A A56G A92G U127C U139A | 1.42
A30G A94U A96G | 0.9
C6U A47G A78G A94G | 0.37
A5G A23G U39C A91G A125G | 0.23
U19A U37C A66G A67G | 1.49
A30U A66G A135U | 1.92
U72A U87C A118G A140C | 0.14
U26A A30G G50U U72A A86G | 0.18
A5G A89G A92G A135G | 1.22
A23U A24G C76G A82G A116U | 0.12
A51U A78U U100C U103A U122C | 0.13
A5G G8U A36G | 1.65
U9A A60G A66G A92G | 0.57
A52G A62U C107G | 0.01
U49A A52G A60G U100A | 0.41
A54G A66G A90G | 0.8
U39A A51G A86U A95G | 2.52
A27G G48U A90G A94G U102C | 1.05
A13G A23G U70C G104A | 0.02
A18G A33U A63G A118G U124C | 0.76
U12C U70C A82U A89U A140C | 0.3
C46A A47C A62G A67G U103C | 0.26
U49C U72A U127C A129G | 0.02

Variant | self-cleavage
U19C U97A U120A | 2.52
A22U A24C A36U | 1.1
A56G A86G U132C | 1.08
U72A A96G U120C | 0.06
A30G U37C A64G C128U | 1.09
A18U A30G A62G | 0.81
A11G A22G U72C | 0.37
A78G A94G U102C | 0.26
G7U A23G U39A A90G | 1.83
A5G A22G U57C U102C | 0.72
G58A U70C A94G U100A | 0.06
A11U A24G C61U | 1.26
U12C A69G G99A | 0.73
C6U A22G A30G A64G | 0.91
U9C A52G A59G A62U | 1.19
U26C U49C A60G A62G | 0.77
A24G A52C A82G | 0.23
A52G A59G G80U A89C A117G | 0.21
A92G U103C U122A U130C | 0.37
A22G A52G U102C | 1.65
A69U U70A A92U A116G | 1.3
A59G A95G U120C | 1.42
A33G U38C A117G A118G U120C | 0.26
U37C A54G U57A A129U | 1.64

Variant | self-cleavage
A33G A64G U72C | 0.18
A4G U19C A54U U102C | 1.5
A59G A82G U97A A118G | 0.12
U2C A59G A78G | 0.23
U12C A23G A51U A94G | 0.89
A52G A98G U127C | 0.34
U12C A69G A91G U97A A111G | 0.02
A51G A95G U130C | 1.67
U12G U37C A94U A111G | 0.18
C6G U12A U38C | 1.29
U87C A89U U108C C128U | 0.01
A33G A54G A55G U97C A117U | 0.33
A24G G84A A111G A116U A118G U122C | 0.01
A24G U72G U87C | 0.34
G21U A36C A92U | 1.34
A52G U70G A98G A126G | 0.1
A23G A52G A63G A82G A91G U132C | 0.11
U43C A89G G115A | 0.34
U49A A55G A96G | 1.28
A22G A55G U72A U97C U103C A126G | 0.07
A5G A22G A51U | 0.74
A24G U57C A95G U130C | 1.36
A22G G48A A69U U127C | 1.21
A24G U57C A95G U100C | 1.56

Variant | self-cleavage
A91G U102C A116G U131C | 0.7
A56G A78U U100A | 0.04
A5G A18G A24G | 1.27
A98G C109U U122C | 0.04
A11G U19C A30G | 1.25
U2C G58U U70C A78G A90G | 0.2
A18U A60G G75A U127C | 0.01
A52G A98U U130C | 2.77
C32G A55G A116U | 0.06
U9G A56G G84U | 0.63
A24G A36G G44A A64G G106A A118G | 0.01
A63G U72C A110G | 0.04
U49C A56G A91U | 0.75
U2C U9C A11U U108A | 0.08
A47U U49C A114G U132C | 0.06
U12C A47G A60G U108C A126U | 0.07
U2A U37C C81U | 0.79
A13G A66G A89G A114U A116U A125U | 0.03
A33G U37C U43C U70C U87C | 0.58
A78G G83A U127C | 0.16
A22G U100C U127C U131C | 0.71
A22G A30U U39C | 0.88
U2C U120C A134G | 0.57
U87C U100A A118U | 0.23

Variant | self-cleavage
G15U C45U A96U | 0.83
U49A A56G A111G | 0.05
U2C G28U C34U C40U A51U A54G A55U U130C | 0.55
G41A A54G U57C A62U A63U U103C U108C | 0.01
A64G A125G U127C U132C | 0.06
A54G A63G U133C | 1.85
U9C U57C A86G A89G A111G A118G | 0
A63G A66G A69U | 1.05
G73A A89G U127C U132C A135U | 0.17
A63G A91G A92G A135U | 0.68
A30U U72C A89G U102C | 0.14
U38C A94U A110U | 1.54
A54G A66U A92G | 2.05
A52G A55G A64U U87A U97C U130C | 0.58
A5G A30U A33G U43A A60G A91G | 1.66
A55G A62U U132A | 1.82
A5G G20U U120A U130C | 1.62
U9A U43C A51G | 1.09
A51G A92G U120C A129G | 0.23
U97A U100C A140U | 1.65
A62G A67G A96G | 1.59
G1A A23U A67G | 2.4
A27U A114G A118G | 0.44
G7U A68G U72A | 0.5

Variant | self-cleavage
A24C A47G G73U A125G | 0.04
A24G G44A A51G A78U | 0.65
U43A A56G A67G | 1.12
A24U U49C A110G | 0.17
C35U A54G U127C | 1.23
A78C A90G U108C | 0.01
U49A U102A G123A | 0.68
U19C A90C A94G | 1.68
A33G A68G C109U | 0.23
A66G U124C A135G | 0.19
A95G G104A U122C | 0.03
U49C A62G A94G U97C | 1.07
G41A A67G A116G | 0.51
U38C A60G A91U | 1.84
A47U A51C A62G A95G | 0.75
A22G U87G A91U | 0.48
U9C A11G U100C | 1.08
U37C U38G U49C A91G | 1.12
A5U A126G U131G | 0.53
A82G A86G U122C | 0.2
A11C A67G A78C | 0.34
A22G U37C A52U U57C A89C | 1.25
U9C U43C A69G | 1.66
A63G A66G U108C C109U | 0.01

Variant | self-cleavage
U19A A30U U122C | 1.06
U39C A54G A55U A56U | 1.06
A59G U87A U100C U102A | 1.44
A24G U43C U70A A95G | 1.21
A13G A51G A69U U103C U127C U132C | 0.48
A69G U100A U102C | 2.02
U9C A33G A116G | 0.66
U43C A66U A78G A90G U127A | 0.15
U3C U100C U122C U130C | 1.57
A5G U26C G53U A67G A82G | 0.8
A36G U49C G79A | 0.1
G29A A30G A52G A63G A68G | 1.9
U39A G41A A62G A140G | 1.65
U9C A22G A59G A78U A117G | 0.23
A23G U26C A51G U131C | 1.25
U39C A51G A64G | 0.99
U3C U38C A96U U122A A126U | 0.31
A22G A67G U124C | 0.65
U26C A51G U70A A111G | 0.04
A62G A68G G79A U132A | 0.12
U57C A94G A117U | 0.76
A33U A66G A96G | 2.56
A5G U19C U57G A67G A91G | 0.71
